In US7732162:

Key:
[1] = target: MCP-1(1-76) bearing an N-terminal pyroglutamyl residue
[2] = target: full length recombinant human MCP-1(1-76) starting with an N-terminal glutamine

B1: MMP-1 from human rheumatoid synovial fibroblasts (protein)
chain: FVLTEGNPRWEQTHLTYRIENYTPDLPRADVDHAIEKAFQLWSNVTPLTFTKVSEGQADIMISFVRGDHRDNSPFDGPGGNLAHAFQPGPGIGGDAHFDEDERWTNNFREYNLHRVAAHELGHSLGLSHSTDIGALMYPSYTFSGDVQLAQDDIDGIQAIYGRSQNPVQPIGPQTPKACDSKLTFDAITTIRGEVMFFKDRFYMRTNPFYPEVELNFISVFWPQLPNGLEAAYEFADRDEVRFFKGNKYWAVQGQNVLHGYPKDIYSSFGFPRTVKHIDAALSEENTGKTYFFVANKYWRYDEYKRSMDPGYPKMIAHDFPGIGHKVDAVFMKDGFFYFFHGTRQYKFDPKTKRILTLQKANSWFNCRKN
N-terminal cleavage, MALDI-TOF [1]: MMP-1 inactivates mature MCP-1 by cleaving the 4 N-terminal amino acids (pE/Q-P-D-A) independent from the presence of a N-terminal pGlu residue | N-terminal cleavage, MALDI-TOF [2]: MMP-1 inactivates mature MCP-1 by cleaving the 4 N-terminal amino acids (pE/Q-P-D-A) independent from the presence of a N-terminal pGlu residue
